# Data: publication PMC4336329 (PLoS ONE, 2015)
# In all, about 310,000 compounds went through this assay and about 14,000 (4.5%) showed an effect of 50% or more. Effects have a minus sign here. The list shows a part of the results.
# Target: human ether-à-go-go-related gene (hERG) potassium channel (human, UniProt Q12809)
# Assay: primary screen, population patch clamp on CHO cells stably expressing hERG
# 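Further: peak tail current of the secondary pulse compared with the same well before compound.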
# Chain of human ether-à-go-go-related gene (hERG) potassium channel (Q12809 whole entry, looked up): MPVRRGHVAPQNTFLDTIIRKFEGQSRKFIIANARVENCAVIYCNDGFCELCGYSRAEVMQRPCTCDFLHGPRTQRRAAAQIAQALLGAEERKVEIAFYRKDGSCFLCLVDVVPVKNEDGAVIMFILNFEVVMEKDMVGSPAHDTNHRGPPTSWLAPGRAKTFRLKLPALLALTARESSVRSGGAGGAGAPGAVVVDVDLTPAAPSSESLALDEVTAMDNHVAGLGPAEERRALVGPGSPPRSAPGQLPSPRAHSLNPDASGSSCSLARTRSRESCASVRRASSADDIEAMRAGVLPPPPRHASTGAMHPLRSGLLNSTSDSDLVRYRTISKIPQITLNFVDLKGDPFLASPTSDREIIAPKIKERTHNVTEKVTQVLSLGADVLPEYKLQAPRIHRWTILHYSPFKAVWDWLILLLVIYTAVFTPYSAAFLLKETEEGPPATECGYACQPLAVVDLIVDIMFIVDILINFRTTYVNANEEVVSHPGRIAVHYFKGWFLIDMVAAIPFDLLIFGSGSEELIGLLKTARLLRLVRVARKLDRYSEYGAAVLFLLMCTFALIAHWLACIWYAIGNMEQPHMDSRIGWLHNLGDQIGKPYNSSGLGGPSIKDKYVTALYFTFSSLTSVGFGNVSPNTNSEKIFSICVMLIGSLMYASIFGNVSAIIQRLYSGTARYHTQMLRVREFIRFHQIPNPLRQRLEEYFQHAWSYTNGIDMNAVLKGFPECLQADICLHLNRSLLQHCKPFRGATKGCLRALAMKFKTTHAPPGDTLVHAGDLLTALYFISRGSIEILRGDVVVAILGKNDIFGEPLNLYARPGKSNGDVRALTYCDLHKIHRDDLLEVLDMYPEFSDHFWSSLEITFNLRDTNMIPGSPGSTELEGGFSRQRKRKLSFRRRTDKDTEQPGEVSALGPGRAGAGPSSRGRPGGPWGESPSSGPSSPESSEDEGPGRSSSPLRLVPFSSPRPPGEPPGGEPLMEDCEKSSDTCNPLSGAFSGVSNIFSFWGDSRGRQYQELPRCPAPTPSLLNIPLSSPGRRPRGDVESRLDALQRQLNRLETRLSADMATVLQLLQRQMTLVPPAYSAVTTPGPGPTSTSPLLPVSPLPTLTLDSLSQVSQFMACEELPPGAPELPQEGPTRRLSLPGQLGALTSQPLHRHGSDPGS
row,Structure (SMILES),"hERG current change (%, negative = inhibition) at 10uM [%]"
1,CC1CN(CC(O)COc2ccc(C#N)cc2)CCN1CC(O)COc1ccc(C#N)cc1 (stereo not drawn),-77.2
2,O=C(Cc1ccccc1)NC1CCN(S(=O)(=O)c2cccc(F)c2)CC1,1.42
3,Cc1ccc(C(C)C)c(OCC(O)CN2CCN(CCO)CC2)c1.Cl (stereo not drawn),-13.9
4,O=C(NCC1CCCO1)c1cccc(NC(=O)c2ccco2)c1 (stereo not drawn),0.813
5,Cc1ccc(/C=N/NC(=O)CNC(=O)c2cccc([N+](=O)[O-])c2C)o1,17.4
6,CC(=O)c1ccc(NC(=O)c2cc(-c3cccs3)on2)cc1,23.2
7,CC(=O)COc1cc(C)cc2oc(=O)c(C)c(C)c12,-5.86
8,CC(NC(=O)N1CCOCC1)c1ccccc1 (stereo not drawn),15.4
9,Nc1nnc(C(c2ccccc2)c2ccccc2)s1,1.08
10,Cc1cccc(OCC(=O)NC2CCCC2)c1,12.8
11,O=C(O)C1CCCN1S(=O)(=O)c1ccc(Cl)cc1 (stereo not drawn),1.76
12,Cc1ccc(C(=O)COC(=O)COc2ccccc2C)cc1,-3.79
13,CNC(=S)NC1CC2CCCC(C1)N2Cc1ccc(C)cc1 (stereo not drawn),-38.9
14,CC(=O)N1CC=CC1(C)C(=O)O (stereo not drawn),15.5
15,CCOC(=O)c1c(NC(N)=O)nc2n1CCC2,0.875
16,Cc1c(NC(=O)/C(C#N)=C/c2ccc(-c3ccc(Cl)cc3)o2)c(=O)n(-c2ccccc2)n1C,-41.5
17,N#CC1=C(N)Oc2c(oc(CO)cc2=O)C1c1ccsc1 (stereo not drawn),8.61
18,O=C(Nc1ccc(N2CCCC2)c(S(=O)(=O)Nc2cccc(C(F)(F)F)c2)c1)c1cccs1,12.8
19,O=C(CNc1cccc(Cl)c1)c1ccc(Cl)cc1,-9.86
20,C=CCOc1ccc(CNc2nccs2)cc1,-2.26
21,COc1cccc(NC(=O)COC(=O)C2C3CC4OC(=O)C2C4C3)c1 (stereo not drawn),12.7
22,Cc1cccc(N(C(=O)c2csnn2)C(C(=O)NC(C)(C)C)c2cccs2)c1 (stereo not drawn),-11.2
23,CC(Oc1ccccc1)C(=O)Nc1ccc(S(=O)(=O)N2CCOCC2)cc1 (stereo not drawn),-3.67
24,O=C(O)CCCNC(=O)c1ccccn1,14.2
25,CCCS(=O)(=O)N1CCCC(C(=O)Oc2ccccc2Cl)C1 (stereo not drawn),13.2
26,CCc1nnc(NC(=O)C(CC)CC)s1,-9.5
27,CCOC(=O)c1ccc(-n2c(CN3CCC(O)CC3)nc3ccc([N+](=O)[O-])cc3c2=O)cc1,-2.33
